Test results as given in PMC4336329 (PLoS ONE, 2015).
Out of some 310,000 compounds screened, about 2,200 (0.71%) showed an effect of 50% or more. The effect is printed as a negative number. This is one part of the list.

Each molecule was assayed against human ether-à-go-go-related gene (hERG) potassium channel (human, UniProt Q12809) (assay: primary screen, population patch clamp on CHO cells stably expressing hERG).
Sequence of human ether-à-go-go-related gene (hERG) potassium channel (Q12809 whole entry, looked up): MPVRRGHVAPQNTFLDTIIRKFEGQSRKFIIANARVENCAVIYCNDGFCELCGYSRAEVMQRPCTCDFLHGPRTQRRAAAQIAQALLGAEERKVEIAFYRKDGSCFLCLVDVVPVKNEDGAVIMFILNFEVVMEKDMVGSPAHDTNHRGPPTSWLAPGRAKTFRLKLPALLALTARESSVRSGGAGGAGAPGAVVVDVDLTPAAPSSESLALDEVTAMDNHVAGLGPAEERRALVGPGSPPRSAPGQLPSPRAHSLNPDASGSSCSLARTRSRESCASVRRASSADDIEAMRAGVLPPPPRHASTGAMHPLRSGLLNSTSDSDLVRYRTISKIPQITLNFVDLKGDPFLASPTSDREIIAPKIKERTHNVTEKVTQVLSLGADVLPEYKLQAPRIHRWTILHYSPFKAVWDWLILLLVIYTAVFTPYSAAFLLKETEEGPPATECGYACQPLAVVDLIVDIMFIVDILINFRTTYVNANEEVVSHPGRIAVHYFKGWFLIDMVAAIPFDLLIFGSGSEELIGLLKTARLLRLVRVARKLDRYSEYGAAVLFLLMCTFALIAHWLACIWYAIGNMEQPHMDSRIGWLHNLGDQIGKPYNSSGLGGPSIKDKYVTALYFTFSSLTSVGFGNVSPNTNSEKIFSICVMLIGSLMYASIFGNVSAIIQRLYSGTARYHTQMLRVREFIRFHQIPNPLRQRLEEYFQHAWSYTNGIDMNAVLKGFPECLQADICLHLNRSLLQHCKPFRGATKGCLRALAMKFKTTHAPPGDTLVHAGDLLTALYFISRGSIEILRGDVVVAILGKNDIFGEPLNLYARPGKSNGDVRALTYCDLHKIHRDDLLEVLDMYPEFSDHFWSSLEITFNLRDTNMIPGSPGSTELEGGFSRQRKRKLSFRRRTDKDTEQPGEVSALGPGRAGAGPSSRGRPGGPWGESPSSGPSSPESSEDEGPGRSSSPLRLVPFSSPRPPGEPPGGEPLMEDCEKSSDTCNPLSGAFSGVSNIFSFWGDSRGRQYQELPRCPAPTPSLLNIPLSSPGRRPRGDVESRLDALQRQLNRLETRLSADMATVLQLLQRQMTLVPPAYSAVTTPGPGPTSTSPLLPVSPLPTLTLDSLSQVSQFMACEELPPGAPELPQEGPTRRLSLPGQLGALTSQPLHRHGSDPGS

SMILES	hERG current change (%, negative = inhibition) at 1uM [%]
COc1ccc(CN(CC(=O)NCc2ccccc2)C(=O)c2csnn2)cc1	6.04
Cc1ccc(NC(=O)Cn2cc(S(=O)(=O)c3ccccc3)c(=O)c3cc(F)ccc32)cc1	-1.65
N#CCCN1CCN(Cc2cc(-c3ccccc3)ccc2O)CC1	2.43
COc1ccc(N(C)C(=O)c2cnc(N3CCN(c4ncccn4)CC3)c3ccccc23)cc1	12.9
CC[C@@H](C)[C@H](NC(=O)Cc1c(C)c2cc3c(C)c(C)oc3c(C)c2oc1=O)C(=O)O	13.1
Cc1sc2nc3n(c(=O)c2c1C)CCCCC3	7.1
CC(C)CNC(=O)COC(=O)C1c2ccccc2Oc2ccccc21	2.68
COc1cc(/C=C2\SC(=S)N(NC(=O)c3cccnc3)C2=O)ccc1O	12.6
CC(C(=O)Nc1nccs1)c1ccc([N+](=O)[O-])cc1 (stereo not shown)	-9.36
CCCCN(C)C(=O)c1cc2cc3ccc(OC)cc3nc2s1	15.5
CCOC(=O)C1=C(C)NC(=O)NC1c1cccs1 (stereo not shown)	13.3
CCN(C(=O)CSc1nc2ccccc2c(=O)n1C(C)COC)C1CCS(=O)(=O)C1 (stereo not shown)	2.14
Cc1ccc(S(=O)(=O)CCC(=O)NCCC2=CCCCC2)cc1	0.671
O=C(CN(Cc1ccccc1Cl)C(=O)CNS(=O)(=O)c1ccccc1)NCC1CCCO1 (stereo not shown)	18.5
COc1ncnc2c1ncn2CC1COC(C)(C)O1 (stereo not shown)	15.2
Oc1cccc2c(NC(=S)Nc3ccc(SC(F)F)cc3)cccc12	12.9
O=C(Nc1cc(C(=O)Nc2ccccc2C(=O)O)cc(C(=O)Nc2ccccc2C(=O)O)c1)c1ccccc1	-8.18
Cc1ccc(Oc2nc(-c3ccccn3)nc3ccccc23)cc1	8.23
Fc1ccc(N2CCN(Cc3c[nH]c4ccccc34)CC2)cc1	-26.6
COc1cccc(C2CC(c3ccc(Cl)cc3Cl)n3nc(N)nc3N2)c1 (stereo not shown)	3.69
O=C1CSC(c2ccc([N+](=O)[O-])cc2)N1c1ccc(O)cc1 (stereo not shown)	16.6
Cc1nc2scc(C)n2c(=O)c1S(=O)(=O)NCC1CCN(Cc2ccc(F)cc2)CC1	-15.6

SMILES	hERG current change (%, negative = inhibition) at 1uM [%]
O=C(NC1CCS(=O)(=O)C1)c1cccc(Cl)c1 (stereo not shown)	6.44
CC(C)NS(=O)(=O)c1cc(F)ccc1CN1C(=O)c2cccnc2C1=O	-1.72
O=C(CCc1nnc(CCCCc2ccccc2)o1)NCCc1cccnc1	1.52
COc1ccc2cc(CCNC(=O)c3ccc(Br)o3)c(=O)[nH]c2c1	7.86
CC(C)N(Cc1nc(-c2ccccc2)no1)C(=O)Cc1ccccc1	11.8
Cc1ccc(C(=O)/C=C/c2cn(CC(O)CN3CCOCC3)c3ccccc23)cc1 (stereo not shown)	15.3
CCOc1ccc(S(=O)(=O)N2CCC(c3ccccc3)CC2)cc1C(=O)O	25
COc1cccc(C(=O)NNC(=O)c2sccc2-n2cccc2)c1	13.4
COc1ccc(C2CC(=O)C3=C(C2)Nc2ccccc2N(C(C)=O)C3c2ccco2)cc1 (stereo not shown)	3.21
COC(=O)c1ccc(CN2CCN(C3CCCCC3)C(CCO)C2)cc1 (stereo not shown)	-3.89
CN(C)c1c([N+](=O)[O-])cc2[nH]c(=O)[nH]c2c1[N+](=O)[O-]	8.21
Cc1cc(-n2nc3ccccc3n2)c(O)c([N+](=O)[O-])c1	10.4
COCCCN1C(=O)C(=O)/C(=C(/O)c2ccc(OC)cc2)C12C(=O)N(C)c1ccccc12 (stereo not shown)	9.11
CC/C=C(/NC(C)=O)c1ccccc1	14.3
CN1c2ccccc2C(=O)/C(=C\Nc2ccc(F)cc2)S1(=O)=O	5.4
COc1ccc(CNC(=O)C(c2ccco2)N(C(=O)CNS(=O)(=O)c2ccccc2)c2ccccc2C)cc1 (stereo not shown)	3.96
C=CCn1c(=O)c2c(nc(Br)n2Cc2ccccc2Cl)n(C)c1=O	7.98
CCCC(=O)NNC(=O)CC(=O)Nc1ccccc1C(=O)O	11.7
Cn1c(SCC(=O)Nc2cccc(F)c2)nc2c([nH]c3ccccc32)c1=O	12.8
c1ccc(-c2nnc3sc(CN4CCC5(CC4)OCCO5)cn23)cc1	2.89
COc1ccc(C2NC(=O)CCC2[N+](=O)[O-])c(OC)c1OC (stereo not shown)	17.5
